SMILES strings stand for the structures. Over roughly 2,900 compounds, “NF-kB SEAP reporter activity, fold change vs agonist alone” has its median near 0.99; the highest 2% begin near 2.6. This is one part of the list.

Assay [1] has as its system RAW-Dual. As to the kind of experiment: NF-kB SEAP reporter activity, fold change vs agonist alone; higher = enhanced NF-kB activity. The following applies: cytotoxicity flag (confluency mask): not cytotoxic. A digest of the protocol: (§1)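 RAW-Dual macrophages were seeded in DMEM at 50,000 cells/well in 384-well plates, given 50 nL of library stock by pin tool, and given a PRR agonist 1 h later. Plates were held at 37 °C, 5% CO2 for 20 hours, after which supernatant was read for IRF by QuantiLuc luminescence and for NF-κB by QuantiBlue absorbance at 620 nm. Reporter activity is expressed as fold change over wells that received agonist alone. A well was called cytotoxic when IncuCyte confluency fell below 70% of agonist controls in both mask sets.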

Assay [2] concerns RAW-Dual. Description: NF-kB SEAP reporter activity, fold change vs agonist alone; cytotoxicity flag (confluency mask): not cytotoxic; higher = enhanced NF-kB activity. In outline: as §1
Where [3] appears, read: agonist: ODN 1826 (TLR9) 0.5 ug/mL.
[4] abbreviates: agonist: Pam2CSK4 (TLR2/6) 0.1 ug/mL.
Setting [5] is: agonist: Pam3CSK4 (TLR2/1) 0.1 ug/mL.
[6] abbreviates: library stock concentration (final ~1000-fold dilution): 2 mM, agonist: Imiquimod (TLR7) […].
The mark [7] stands for this setting: library stock concentration (final ~1000-fold dilution): 2 mM, agonist: MPLA (TLR4) […].
[8] abbreviates: library stock concentration (final ~1000-fold dilution): 10 mM, agonist: Imiquimod (TLR7) […].
[9] abbreviates: library stock concentration (final ~1000-fold dilution): 10 mM, agonist: MPLA (TLR4) […].

Regarding `Cl.Cl.c1cc(-c2cnn3cc(-c4ccc(OCCN5CCCCC5)cc4)cnc23)ccn1`, the “NF-kB SEAP reporter activity” value in the assay on RAW-Dual [1] (library stock concentration (final ~1000-fold dilution): 10 mM water, agonist: Imiquimod (TLR7) […]) amounted to 0.944; with RAW-Dual [1] (library stock concentration (final ~1000-fold dilution): 10 mM water, agonist: MPLA (TLR4) […]), 1.2.
Regarding `Cl.Cl.c1cc(-c2cnn3cc(-c4ccc(OCCN5CCCCC5)cc4)cnc23)ccn1` (library stock concentration (final ~1000-fold dilution): 10 mM water), the “NF-kB SEAP reporter activity” value with RAW-Dual [2] (agonist: LPS (TLR4) 0.1 ug/mL) amounted to 1.69; with RAW-Dual [2] (setting [3]), 0.252; in the assay with RAW-Dual [2] (setting [4]), 1.44; with RAW-Dual [2] (setting [5]), 1.92.
`CCC(=O)N1CCN(c2ccc(-n3c(=O)ccc4cnc5ccc(-c6cnc7ccccc7c6)cc5c43)cc2C(F)(F)F)CC1`: the “NF-kB SEAP reporter activity” value was 0.44 in the assay on RAW-Dual [1] (setting [6]) and 1.51 with RAW-Dual [1] (setting [7]).
In the case of `CCC(=O)N1CCN(c2ccc(-n3c(=O)ccc4cnc5ccc(-c6cnc7ccccc7c6)cc5c43)cc2C(F)(F)F)CC1` (library stock concentration (final ~1000-fold dilution): 2 mM), the “NF-kB SEAP reporter activity” value turned out to be 1.55 in the assay on RAW-Dual [2] (agonist: LPS (TLR4) 0.1 ug/mL), 1.02 with RAW-Dual [2] (setting [3]), 0.421 with RAW-Dual [2] (setting [4]) and 0.629 in the assay with RAW-Dual [2] (setting [5]).
Turning to `CCNC1(C(N)=O)CCN(c2ncnc3c2nc(-c2ccccc2Cl)n3-c2ccc(Cl)cc2)CC1.Cl`, the “NF-kB SEAP reporter activity” value is 0.57 in the assay on RAW-Dual [1] (setting [6]) and 0.847 in the assay on RAW-Dual [1] (setting [7]).
For the compound `CCNC1(C(N)=O)CCN(c2ncnc3c2nc(-c2ccccc2Cl)n3-c2ccc(Cl)cc2)CC1.Cl` (library stock concentration (final ~1000-fold dilution): 2 mM), the “NF-kB SEAP reporter activity” value in the assay with RAW-Dual [2] (agonist: LPS (TLR4) 0.1 ug/mL) turned out to be 0.587; in the assay with RAW-Dual [2] (setting [3]), 0.493; with RAW-Dual [2] (setting [4]), 0.537; in the assay with RAW-Dual [2] (setting [5]), 0.482.
Consider `CC(C)NCC(O)COc1ccc(COCCOC(C)C)cc1.O=C(O)/C=C/C(=O)O` (configuration not stated), for which the entries for the “NF-kB SEAP reporter activity” value in the assay on RAW-Dual [1] (setting [8]) and in the assay on RAW-Dual [1] (setting [9]) were 0.869 and 1.02, respectively.
With `CC(C)NCC(O)COc1ccc(COCCOC(C)C)cc1.O=C(O)/C=C/C(=O)O` (configuration not stated) (library stock concentration (final ~1000-fold dilution): 10 mM), the “NF-kB SEAP reporter activity” value in the assay with RAW-Dual [2] (agonist: LPS (TLR4) 0.1 ug/mL) worked out at 1.05; with RAW-Dual [2] (setting [3]), 0.873; in the assay with RAW-Dual [2] (setting [4]), 0.984; in the assay with RAW-Dual [2] (setting [5]), 1.03.
Taken in the same sequence, the figures for `CC(Nc1nc(NC(C)C(F)(F)F)nc(-c2cccc(Cl)n2)n1)C(F)(F)F` (configuration not stated) (library stock concentration (final ~1000-fold dilution): 10 mM) were 1.26, 1.18, 0.998 and 1.09.
`CC(Nc1nc(NC(C)C(F)(F)F)nc(-c2cccc(Cl)n2)n1)C(F)(F)F` (configuration not stated): the “NF-kB SEAP reporter activity” value with RAW-Dual [1] (setting [8]) came out at 1.04; with RAW-Dual [1] (setting [9]), 1.11.
`COc1ccc2cc1Oc1ccc(cc1)CC1c3cc(c(OC)cc3CCN1C)Oc1c(OC)c(OC)cc3c1C(C2)N(C)CC3` (configuration not stated) (library stock concentration (final ~1000-fold dilution): 10 mM): the “NF-kB SEAP reporter activity” value was found to be 1.82 with RAW-Dual [2] (agonist: LPS (TLR4) 0.1 ug/mL), 0.93 with RAW-Dual [2] (setting [3]), 1.21 with RAW-Dual [2] (setting [4]) and 0.915 in the assay on RAW-Dual [2] (setting [5]).
In the case of `COc1ccc2cc1Oc1ccc(cc1)CC1c3cc(c(OC)cc3CCN1C)Oc1c(OC)c(OC)cc3c1C(C2)N(C)CC3` (configuration not stated), the “NF-kB SEAP reporter activity” value with RAW-Dual [1] (setting [8]) was determined as 0.873; in the assay with RAW-Dual [1] (setting [9]), 0.936.
The corresponding values for `COc1cc(C2Oc3cc(C4Oc5cc(O)cc(O)c5C(=O)C4O)ccc3OC2CO)ccc1O` (configuration not stated) are 0.843 and 1.21.
Consider `COc1cc(C2Oc3cc(C4Oc5cc(O)cc(O)c5C(=O)C4O)ccc3OC2CO)ccc1O` (configuration not stated) (library stock concentration (final ~1000-fold dilution): 10 mM), for which the “NF-kB SEAP reporter activity” value in the assay with RAW-Dual [2] (agonist: LPS (TLR4) 0.1 ug/mL) turned out to be 1.77; in the assay with RAW-Dual [2] (setting [3]), 1.18; in the assay on RAW-Dual [2] (setting [4]), 0.973; in the assay with RAW-Dual [2] (setting [5]), 0.954.
As for `CC1(C)CC[C@]2(C(=O)n3ccnc3)CC[C@]3(C)[C@H](C(=O)C=C4[C@@]5(C)C=C(C#N)C(=O)C(C)(C)[C@@H]5CC[C@]43C)[C@@H]2C1`, the “NF-kB SEAP reporter activity” value with RAW-Dual [1] (setting [8]) came to 0.139; with RAW-Dual [1] (setting [9]) it was 0.261.
`CC1(C)CC[C@]2(C(=O)n3ccnc3)CC[C@]3(C)[C@H](C(=O)C=C4[C@@]5(C)C=C(C#N)C(=O)C(C)(C)[C@@H]5CC[C@]43C)[C@@H]2C1` (library stock concentration (final ~1000-fold dilution): 10 mM): the “NF-kB SEAP reporter activity” value with RAW-Dual [2] (agonist: LPS (TLR4) 0.1 ug/mL) worked out at 0.311; in the assay with RAW-Dual [2] (setting [3]), 0.196; with RAW-Dual [2] (setting [4]), 0.0777; with RAW-Dual [2] (setting [5]) it was 0.202.
Regarding `CC(C)c1ccc(NC(=O)Cn2cnc3c2c(=O)n(C)c(=O)n3C)cc1`, the “NF-kB SEAP reporter activity” value amounted to 1.04 in the assay on RAW-Dual [1] (setting [8]) and 1.13 in the assay with RAW-Dual [1] (setting [9]).
On to `CC(C)c1ccc(NC(=O)Cn2cnc3c2c(=O)n(C)c(=O)n3C)cc1` (library stock concentration (final ~1000-fold dilution): 10 mM), for which the “NF-kB SEAP reporter activity” value in the assay on RAW-Dual [2] (agonist: LPS (TLR4) 0.1 ug/mL) came to 1.3; in the assay on RAW-Dual [2] (setting [3]) it was 1.05; in the assay on RAW-Dual [2] (setting [4]) it was 1.07; in the assay with RAW-Dual [2] (setting [5]) it was 1.34.
On to `C=CC[N+]1(C2CC3C4CCC5CC(O)C(N6CCOCC6)CC5(C)C4CCC3(C)C2OC(C)=O)CCCC1` (configuration not stated) (library stock concentration (final ~1000-fold dilution): 10 mM), for which the “NF-kB SEAP reporter activity” value in the assay on RAW-Dual [2] (agonist: LPS (TLR4) 0.1 ug/mL) was 1.42; with RAW-Dual [2] (setting [3]), 0.925; in the assay on RAW-Dual [2] (setting [4]), 1.1; with RAW-Dual [2] (setting [5]), 1.15.
`C=CC[N+]1(C2CC3C4CCC5CC(O)C(N6CCOCC6)CC5(C)C4CCC3(C)C2OC(C)=O)CCCC1` (configuration not stated): the “NF-kB SEAP reporter activity” value came out at 0.925 in the assay on RAW-Dual [1] (setting [8]) and 0.94 in the assay on RAW-Dual [1] (setting [9]).
As to `CCC(CC)n1ccc2c(C(=O)NCc3c(C)cc(C)[nH]c3=O)cc(C#N)cc21` (library stock concentration (final ~1000-fold dilution): 10 mM), the “NF-kB SEAP reporter activity” value came to 1.44 in the assay on RAW-Dual [2] (agonist: LPS (TLR4) 0.1 ug/mL), 1.08 in the assay on RAW-Dual [2] (setting [3]), 1.11 with RAW-Dual [2] (setting [4]) and 0.998 with RAW-Dual [2] (setting [5]).
As to `CCC(CC)n1ccc2c(C(=O)NCc3c(C)cc(C)[nH]c3=O)cc(C#N)cc21`, the “NF-kB SEAP reporter activity” value in the assay on RAW-Dual [1] (setting [8]) amounted to 0.981; in the assay on RAW-Dual [1] (setting [9]) it was 0.985.
With `CCNC(=O)c1[nH]nc(-c2cc(Cl)c(O)cc2O)c1-c1ccc(OC)cc1` (library stock concentration (final ~1000-fold dilution): 10 mM), the “NF-kB SEAP reporter activity” value was determined as 0.211 in the assay on RAW-Dual [2] (agonist: LPS (TLR4) 0.1 ug/mL), 0.204 in the assay on RAW-Dual [2] (setting [3]), 0.0641 in the assay on RAW-Dual [2] (setting [4]) and 0.133 in the assay on RAW-Dual [2] (setting [5]).
Regarding `CCNC(=O)c1[nH]nc(-c2cc(Cl)c(O)cc2O)c1-c1ccc(OC)cc1`, the “NF-kB SEAP reporter activity” value is 0.158 in the assay with RAW-Dual [1] (setting [8]) and 0.396 in the assay on RAW-Dual [1] (setting [9]).

The values above are taken from the supplement of paper PMC10037445.
